Here are results for 20 molecules from ChEMBL document CHEMBL1821711, “Design and synthesis of novel arylpiperazine derivatives containing the imidazole core targeting 5-HT(2A) receptor and 5-HT transporter” (J Med Chem, 2011).

The target of data set [1] is T1, 5-hydroxytryptamine receptor 2C (Homo sapiens, UniProt P28335).
T1 sequence (P28335 whole entry): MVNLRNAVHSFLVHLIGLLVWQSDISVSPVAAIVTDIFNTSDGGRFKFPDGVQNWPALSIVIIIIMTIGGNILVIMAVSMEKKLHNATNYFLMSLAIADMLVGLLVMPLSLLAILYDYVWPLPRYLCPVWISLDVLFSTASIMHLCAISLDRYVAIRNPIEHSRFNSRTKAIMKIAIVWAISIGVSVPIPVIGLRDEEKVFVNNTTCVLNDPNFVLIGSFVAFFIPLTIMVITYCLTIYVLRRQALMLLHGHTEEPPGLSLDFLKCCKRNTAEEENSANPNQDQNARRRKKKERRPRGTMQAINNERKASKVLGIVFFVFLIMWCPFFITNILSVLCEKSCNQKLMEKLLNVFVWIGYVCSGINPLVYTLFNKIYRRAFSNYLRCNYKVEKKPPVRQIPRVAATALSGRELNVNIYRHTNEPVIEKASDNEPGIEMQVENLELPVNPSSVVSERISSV
Description: biochemical. Type of data set: cell-based, CHO-K1.

In data set [2] the target is Sodium-dependent serotonin transporter (Homo sapiens, UniProt P31645). In words: biochemical. Type of data set: cell-based, HEK293.
A short description of data set [3]: in vivo. The note with it: Sprague-Dawley, rat, iv, 1 mg/kg.
Data set [4] in a line: in vivo. The note with it: Sprague-Dawley, rat, po, 5 mg/kg.
The nature of data set [5]: in vivo. The following applies: Sprague-Dawley, rat, po, 5 mg/kg. The source holds these as a separate data set.
Data set [6] is described as follows: in vivo. The note with it: Sprague-Dawley, rat, iv, 1 mg/kg. The source holds these as a separate data set.
A short description of data set [7]: in vivo. The note with it: Sprague-Dawley, rat, po, 5 mg/kg. The source holds these as a separate data set.
A short description of data set [8]: in vivo. The note with it: Sprague-Dawley, rat, iv, 1 mg/kg. The source holds these as a separate data set.
Data set [9] is described as follows: in vivo. The following applies: Sprague-Dawley, rat, po, 5 mg/kg. This is another data set of the same source.
A short description of data set [10]: in vivo. The note with it: Sprague-Dawley, rat, po, 5 mg/kg. This is another data set of the same source.

Chain of Sodium-dependent serotonin transporter (P31645 whole entry): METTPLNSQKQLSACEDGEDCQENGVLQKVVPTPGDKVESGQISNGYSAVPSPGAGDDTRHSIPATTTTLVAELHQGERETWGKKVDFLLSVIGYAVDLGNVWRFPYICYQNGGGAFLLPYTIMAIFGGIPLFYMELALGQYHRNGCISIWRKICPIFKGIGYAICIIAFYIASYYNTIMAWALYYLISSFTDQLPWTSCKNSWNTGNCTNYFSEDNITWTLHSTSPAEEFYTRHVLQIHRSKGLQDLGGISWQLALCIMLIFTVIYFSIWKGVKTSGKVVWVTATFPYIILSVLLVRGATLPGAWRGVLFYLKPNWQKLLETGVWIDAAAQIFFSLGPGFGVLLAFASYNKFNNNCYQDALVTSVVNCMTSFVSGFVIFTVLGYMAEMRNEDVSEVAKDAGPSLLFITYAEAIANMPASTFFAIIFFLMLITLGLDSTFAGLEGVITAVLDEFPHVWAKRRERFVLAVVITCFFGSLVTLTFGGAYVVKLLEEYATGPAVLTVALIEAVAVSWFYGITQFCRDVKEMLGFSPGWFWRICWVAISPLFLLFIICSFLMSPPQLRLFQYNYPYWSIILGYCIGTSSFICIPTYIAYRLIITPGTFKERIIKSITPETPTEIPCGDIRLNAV

In turn, `Cc1c(Cl)cccc1N1CCN(CCCNC(=O)c2nc(C)n(-c3ccccc3Cl)c2C)CC1` came in with an IC50 in data set [1] of 39 nM.
As to `COc1ccc(-n2c(C)nc(C(=O)NCC(O)CN3CCN(c4cccc(C)c4C)CC3)c2C)cc1OC` (centres undefined), the IC50 in data set [1] was found to be 1180 nM; in data set [2], 70.3 nM.
As for `COc1ccccc1-n1c(C)nc(C(=O)NCCCN2CCN(c3cccc(Cl)c3C)CC2)c1C.Cl.Cl.Cl`, the highest concentration (Cmax) in data set [3] was 408 ng/mL; in data set [4] it was 65 ng/mL. Moreover, the Tmax in data set [5] was 15 min. The values for the half-life in [6] and in [7] were 13.6 min and 7.26 min, respectively. Also, the results for the AUC(0-inf) in data set [8] and in data set [9] were 127 ng·h/mL and 21.9 ng·h/mL, respectively. In [10], the bioavailability was determined as 3.45%.
Turning to `Cc1c(Cl)cccc1N1CCN(CC(O)CNC(=O)c2nc(C)n(-c3ccccc3F)c2C)CC1` (centres undefined), the figures for the IC50 in data set [1] and in data set [2] were 774 nM and 36 nM, respectively.
In turn, `Cc1cccc(N2CCN(CCCNC(=O)c3nc(C)n(-c4ccccc4)c3C)CC2)c1C` came in with an IC50 in data set [1] of 170 nM. That is a sub-micromolar value.
For the molecule `Cc1cccc(N2CCN(CC(O)CNC(=O)c3nc(C)n(-c4ccc(F)cc4)c3C)CC2)c1C` (centres undefined), the IC50 in data set [1] worked out at 654 nM.
`Cc1nc(C(=O)NCCCN2CCN(c3cccc(Cl)c3Cl)CC2)c(C)n1-c1ccc2c(c1)OCCO2.Cl.Cl.Cl.Cl`: the figures for the Cmax in data set [3] and in data set [4] were 245 ng/mL and 208 ng/mL, respectively. For the same molecule, the time of peak concentration (Tmax) in data set [5] turned out to be 15 min. Further, the half-life in data set [6] was 26.3 min; in [7], 22.3 min. The area under the curve AUC(0-inf) in data set [8] was 182 ng·h/mL; in [9], 180 ng·h/mL. For the same molecule, the bioavailability in [10] amounted to 14.9%.
In data set [1], `Cc1cccc(N2CCN(CCCNC(=O)c3nc(C)n(-c4ccc(F)cc4)c3C)CC2)c1C` gave a half-inhibitory concentration (IC50) of 324 nM. In other words, the sub-micromolar range.
In data set [1], `CCCc1nc(C(=O)NCC(O)CN2CCN(c3cccc(Cl)c3C)CC2)c(C)n1-c1ccccc1` (centres undefined) had a concentration for half-maximal inhibition (IC50) of 398 nM.
In the case of `COc1ccccc1-n1c(C)nc(C(=O)NCC(O)CN2CCN(c3cccc(Cl)c3C)CC2)c1C` (centres undefined), the half-inhibitory concentration (IC50) in data set [1] was found to be 476 nM; in [2], 19 nM.
On to `Cc1cccc(N2CCN(CCCNC(=O)c3nc(C)n(-c4cccc(Cl)c4)c3C)CC2)c1C`, for which, in data set [1], the concentration for half-maximal inhibition (IC50) came out at 111 nM. In other words, the sub-micromolar range.
Still for that read-out and setting: with `Cc1cccc(N2CCN(CCCNC(=O)c3nc(C)n(-c4ccccc4F)c3C)CC2)c1C` the figure was 124 nM; with `Cc1cccc(N2CCN(CC(O)CNC(=O)c3nc(C)n(-c4ccccc4Cl)c3C)CC2)c1C` (centres undefined), 311 nM; with `Cc1cccc(N2CCN(CC(O)CNC(=O)c3nc(C)n(-c4cccc(Cl)c4)c3C)CC2)c1C` (centres undefined), 535 nM.
With `Cc1c(Cl)cccc1N1CCN(CC(O)CNC(=O)c2nc(C)n(-c3ccc(F)cc3)c2C)CC1` (centres undefined), the values for the IC50 in data set [1] and in data set [2] were 1450 nM and 20 nM, respectively.
Take `CCCc1nc(C(=O)NCC(O)CN2CCN(c3cccc(Cl)c3C)CC2)cn1-c1ccc(Cl)cc1` (centres undefined): the IC50 in [1] worked out at 953 nM; in data set [2] it was 80 nM.
`COc1ccc(-n2c(C)nc(C(=O)NCCCN3CCN(c4cccc(Cl)c4Cl)CC3)c2C)cc1` had an IC50 in data set [2] of 33 nM.
`CCCc1nc(C(=O)NCC(O)CN2CCN(c3cccc(Cl)c3Cl)CC2)cn1-c1ccc(Cl)cc1` (centres undefined) showed a half-maximal inhibitory concentration (IC50) in [1] of 856 nM.
With `CCCc1nc(C(=O)NCC(O)CN2CCN(c3cccc(Cl)c3C)CC2)c(C)n1-c1ccc(OC)cc1` (centres undefined), the concentration for half-maximal inhibition (IC50) in [1] stood at 1360 nM.
`CCCc1nc(C(=O)NCCCN2CCN(c3cccc(C)c3C)CC2)c(C)n1-c1ccc(OC)cc1`: half-maximal inhibition in [2] (IC50) required 13 nM.

Broadly, the IC50 is the concentration that inhibits the measured activity by half. Lower therefore signals greater potency in that assay. What is called Cmax is the peak of the concentration-time curve. The Tmax is the time from dosing to the highest level. The half-life is how long it takes for the measured level to halve. A lower half-life goes with rapid decline. For orientation: AUC(0-inf) means total exposure, with the tail of the curve extrapolated. Read a low AUC(0-inf) as low exposure. The bioavailability is dose-corrected exposure relative to a reference, in per cent. A low value points to poor availability.
